These are yes or no findings as the source states them, for the method shown. For part of these data: Binding seen in cells or lysates may run through a third protein. Some entries that bind do so weakly or less than the wild type. For part of these data: Sequences can lack the tags named with a protein.
Assays:
Orc1–TAP (budding yeast) = molecular target: T1, Orc1–TAP (budding yeast) (UniProt P54784); test: co-IP; α-TAP IP (Dynabeads protein G) from lysates of meiotic prophase cells (4-5 h into the meiotic program); IP buffer 50 mM Tris–HCl pH 7.5, 150 mM NaCl, 1% Triton X-100, 1 mM EDTA; also with Benzonase, in ORC1 or orc1-161 backgrounds at 23°C, and in orc2–FRB cells with rapamycin or DMSO
T1 sequence: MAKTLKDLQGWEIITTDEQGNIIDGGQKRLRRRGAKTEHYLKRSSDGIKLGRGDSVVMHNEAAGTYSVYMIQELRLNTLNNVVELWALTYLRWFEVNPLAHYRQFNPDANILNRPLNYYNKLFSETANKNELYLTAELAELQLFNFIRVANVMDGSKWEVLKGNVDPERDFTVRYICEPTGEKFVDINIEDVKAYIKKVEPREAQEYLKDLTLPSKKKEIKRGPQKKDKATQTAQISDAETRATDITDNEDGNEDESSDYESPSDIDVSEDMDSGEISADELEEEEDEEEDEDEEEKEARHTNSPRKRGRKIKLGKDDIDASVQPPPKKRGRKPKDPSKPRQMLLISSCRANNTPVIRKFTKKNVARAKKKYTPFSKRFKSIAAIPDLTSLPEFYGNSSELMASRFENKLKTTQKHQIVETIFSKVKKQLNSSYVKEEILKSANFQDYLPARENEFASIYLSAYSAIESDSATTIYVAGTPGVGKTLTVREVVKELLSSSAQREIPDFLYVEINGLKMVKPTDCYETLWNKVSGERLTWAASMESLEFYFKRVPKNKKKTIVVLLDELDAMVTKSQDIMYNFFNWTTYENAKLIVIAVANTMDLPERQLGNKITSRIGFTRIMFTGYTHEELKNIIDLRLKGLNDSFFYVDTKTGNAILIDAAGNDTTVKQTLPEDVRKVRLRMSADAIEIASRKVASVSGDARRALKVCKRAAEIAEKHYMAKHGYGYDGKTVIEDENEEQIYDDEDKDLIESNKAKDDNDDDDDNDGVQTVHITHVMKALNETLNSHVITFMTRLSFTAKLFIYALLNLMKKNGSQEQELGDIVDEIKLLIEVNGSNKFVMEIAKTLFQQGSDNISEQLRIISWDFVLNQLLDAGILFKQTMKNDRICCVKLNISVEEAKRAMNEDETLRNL

Orc2–TAP (budding yeast) = molecular target: T2, Orc2–TAP (budding yeast) (UniProt P32833); test: as above
T2 sequence: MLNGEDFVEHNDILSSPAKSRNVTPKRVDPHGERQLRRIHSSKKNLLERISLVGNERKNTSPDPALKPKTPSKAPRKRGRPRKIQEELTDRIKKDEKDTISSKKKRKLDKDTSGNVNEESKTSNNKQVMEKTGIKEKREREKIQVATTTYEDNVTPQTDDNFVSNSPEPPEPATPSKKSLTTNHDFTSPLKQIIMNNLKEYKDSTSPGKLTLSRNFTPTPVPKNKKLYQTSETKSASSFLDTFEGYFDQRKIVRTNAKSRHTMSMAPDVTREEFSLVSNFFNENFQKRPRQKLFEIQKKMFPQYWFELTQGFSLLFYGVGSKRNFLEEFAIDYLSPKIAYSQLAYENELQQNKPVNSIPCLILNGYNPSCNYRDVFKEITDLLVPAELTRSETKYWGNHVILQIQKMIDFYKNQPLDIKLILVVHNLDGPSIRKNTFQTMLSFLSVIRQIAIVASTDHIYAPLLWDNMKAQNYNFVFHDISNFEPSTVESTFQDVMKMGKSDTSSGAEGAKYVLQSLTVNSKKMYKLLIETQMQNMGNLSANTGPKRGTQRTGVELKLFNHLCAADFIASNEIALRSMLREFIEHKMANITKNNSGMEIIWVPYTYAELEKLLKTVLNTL

Orc5–TAP (budding yeast) = molecular target: T3, Orc5–TAP (budding yeast) (UniProt P50874); test: as above
T3 sequence: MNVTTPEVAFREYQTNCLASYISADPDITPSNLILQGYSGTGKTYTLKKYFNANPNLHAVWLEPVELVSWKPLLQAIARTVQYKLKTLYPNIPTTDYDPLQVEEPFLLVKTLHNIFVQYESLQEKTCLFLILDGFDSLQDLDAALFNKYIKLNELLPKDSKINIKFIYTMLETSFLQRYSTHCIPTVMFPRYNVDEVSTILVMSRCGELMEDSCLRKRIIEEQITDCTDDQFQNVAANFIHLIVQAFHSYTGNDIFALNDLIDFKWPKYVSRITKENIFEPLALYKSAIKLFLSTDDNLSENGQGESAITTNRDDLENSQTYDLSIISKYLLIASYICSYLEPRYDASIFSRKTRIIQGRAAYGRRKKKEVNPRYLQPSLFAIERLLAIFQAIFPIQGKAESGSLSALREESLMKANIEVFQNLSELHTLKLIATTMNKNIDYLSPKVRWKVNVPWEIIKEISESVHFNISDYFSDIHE

[1] = molecular target: T4, Orc3 (subunit of the insect cell–purified ORC) (budding yeast) (UniProt P54790); test: cross-linking; XL-MS: 0.75 μM His–MBP–Pch2 with 1.5 μM His–ORC, 30 mM HEPES pH 7.5, 150 mM NaCl, 2 mM TCEP, 90 min at 4°C; 3 mM DSBU, 25°C, 1 h; MeroX, 2% FDR; both purified
T4 sequence: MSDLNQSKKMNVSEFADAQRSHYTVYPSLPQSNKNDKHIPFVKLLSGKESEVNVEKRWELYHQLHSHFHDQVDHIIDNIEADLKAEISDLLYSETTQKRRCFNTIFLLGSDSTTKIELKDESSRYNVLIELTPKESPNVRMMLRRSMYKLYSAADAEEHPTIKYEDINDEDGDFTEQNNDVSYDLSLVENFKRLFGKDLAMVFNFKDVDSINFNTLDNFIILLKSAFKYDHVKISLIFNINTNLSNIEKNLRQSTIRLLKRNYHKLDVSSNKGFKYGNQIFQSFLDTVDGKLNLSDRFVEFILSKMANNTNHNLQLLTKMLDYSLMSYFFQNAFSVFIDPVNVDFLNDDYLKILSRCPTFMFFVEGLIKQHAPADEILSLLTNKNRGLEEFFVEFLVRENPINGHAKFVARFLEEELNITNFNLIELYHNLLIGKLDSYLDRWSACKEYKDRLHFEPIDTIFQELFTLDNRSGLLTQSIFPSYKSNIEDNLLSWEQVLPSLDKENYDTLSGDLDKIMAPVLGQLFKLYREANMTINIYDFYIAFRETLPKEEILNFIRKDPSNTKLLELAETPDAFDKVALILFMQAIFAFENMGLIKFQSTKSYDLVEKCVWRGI

[2] = molecular target: T5, Pch2–E399Q (HA-tagged, expressed in meiotic cells) (budding yeast) (UniProt P38126); test: co-IP; α-HA IP of Pch2–E399Q from lysates of meiotic prophase cells (5 h), in CDC6 and cdc6-mn backgrounds
T5 sequence: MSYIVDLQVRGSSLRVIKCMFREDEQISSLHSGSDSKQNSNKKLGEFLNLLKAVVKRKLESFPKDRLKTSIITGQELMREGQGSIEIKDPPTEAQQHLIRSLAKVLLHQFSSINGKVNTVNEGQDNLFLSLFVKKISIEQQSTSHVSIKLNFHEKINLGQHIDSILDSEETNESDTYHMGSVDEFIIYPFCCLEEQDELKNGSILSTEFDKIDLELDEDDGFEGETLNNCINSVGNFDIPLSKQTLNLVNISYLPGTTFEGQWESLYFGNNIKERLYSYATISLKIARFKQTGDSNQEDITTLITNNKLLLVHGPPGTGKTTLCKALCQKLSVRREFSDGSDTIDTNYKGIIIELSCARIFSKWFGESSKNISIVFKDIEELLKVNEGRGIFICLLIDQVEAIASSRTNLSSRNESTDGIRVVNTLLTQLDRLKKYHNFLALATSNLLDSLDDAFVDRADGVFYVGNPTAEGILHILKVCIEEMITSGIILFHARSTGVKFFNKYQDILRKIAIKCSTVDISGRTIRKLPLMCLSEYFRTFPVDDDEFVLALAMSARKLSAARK

[3] = molecular target: T6, Orc2 (precipitated with α-Orc2) (budding yeast (endogenous in SK1 meiotic cells)) (UniProt P32833); test: co-IP; α-Orc2 IP (isotype IgG IP as negative control) from precleared lysates of meiotic cells; Dynabeads protein G
T6 sequence: T2 sequence

B1: Pch2–E399Q (HA-tagged, expressed in meiotic cells) (protein, UniProt P38126 1-564)
chain: T5 sequence
**Q.** B1 was tested. Which binding (Orc1–TAP (budding yeast)) did it give?
**A.** Its binding is “binds”.

**Q.** And the binding (Orc2–TAP (budding yeast))?
**A.** Its binding is “binds”.

**Q.** And the binding (Orc5–TAP (budding yeast))?
**A.** The binding was “binds”.

B2: Orc5 (subunit of the insect cell–purified ORC) (natural protein, budding yeast, UniProt P50874 1-479, looked up)
chain: T3 sequence
notes: Orc5, budding yeast; Stood in the assays as a subunit of m16; source: Tnao38 insect cells, co-expressed, purified as part of His–ORC
**Q.** With B2 as the binder, how does the binding [1] read?
**A.** Its binding is “binds”.

B3: Orc1 (found with Pch2–E399Q as bait) (protein, UniProt P54784 1-914)
chain: T1 sequence
**Q.** With B3 as the binder, how does the binding [2] read?
**A.** The binding was “binds”.

B4: 3xFlag-tagged Pch2–E399Q (protein, UniProt P38126 1-564)
chain: T5 sequence
**Q.** Which binding [3] does the source give for B4 here?
**A.** Its binding is “binds”.
